The whole screen tested about 390,000 compounds, of which about 150 (0.038%) were called active. The shares of active, inactive and inconclusive entries below differ from those in the screen. Calls follow the shape of the dose curve; as a rule, active = well fitted inhibition curve with a large enough effect; inconclusive = small, poorly fitted or top-dose-only effect; inactive = no such curve, though single readings can be large or run the other way. A potency beside an inconclusive call is a rough fit, not a confirmed value.
These molecules were tested against Regulator of G-protein signaling 4 (Homo sapiens) (UniProt P49798) (assay: Inhibitors of Regulator of G Protein Signaling (RGS) 4: qHTS). Conditions: Transcreener GDP fluorescence polarization, RGS4-accelerated GTP hydrolysis; series mostly up to 114 µM; activity change, negative = inhibition: at the top concentration.
Chain of UniProt P49798 (P49798 whole entry, looked up): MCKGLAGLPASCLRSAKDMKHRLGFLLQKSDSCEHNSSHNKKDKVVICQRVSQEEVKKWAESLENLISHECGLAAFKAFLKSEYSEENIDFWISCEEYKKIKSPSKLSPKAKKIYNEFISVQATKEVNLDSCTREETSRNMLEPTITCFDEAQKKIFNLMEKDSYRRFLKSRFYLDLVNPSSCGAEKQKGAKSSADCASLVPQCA
Summary of the method: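 MLSMR compounds (23 nl, pin-transferred) preincubated 10 min at room temperature with a 500nM (2x) first reagent, then RGS4 at 900nM (2x) plus Transcreener GDP mix added; fluorescence polarization (620/688 nm) read before and after 90 min at 30 °C.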
CCOc1ccc(C(=O)NCC(=O)OCC(=O)Nc2cccc(S(=O)(=O)N3CCCC3)c2)cc1 was tested, and the Potency was inconclusive: 79.4 µM [inhibitor, single point].
CCCCCCCC/C=C\C/C=C\C/C=C\CCCC(=O)O was tested, and the Potency was inconclusive: 0.474 µM [inhibitor, full curve, poor fit].
For NCCCN(Cc1ccccc1)c1ccc(Br)cn1, the “activity change, negative = inhibition” value was inactive: 6.38%.
In the case of Cc1ccc(/C=C2\C(=O)NC(=O)N2C)o1, the Potency is reported as inconclusive: 28.2 µM [inhibitor, full curve, poor fit].
Cc1ccc(C(=O)NN2C(=O)c3ccc(S(=O)(=O)c4ccc(C(=O)O)cc4)cc3C2=O)cc1 was tested, and the Potency was inconclusive: 35.5 µM [inhibitor, full curve, poor fit].
For O=C1/C(=C/c2ccncc2)Oc2cc(OS(=O)(=O)c3ccccc3)ccc21, the Potency was inconclusive: 17.8 µM [inhibitor, full curve, poor fit].
O=C(Nc1cccc(C(F)(F)F)c1)N(Cc1ccc(Cl)cc1)CC(O)C(F)(F)F (stereo unspecified) was tested, and the Potency was inconclusive: 89.1 µM [inhibitor, single point].
In the case of CC(/C=C/c1ccco1)=N/NC(=O)Cc1cccs1, the Potency is reported as inconclusive: 50.1 µM [inhibitor, partial curve, poor fit].
For COc1nccnc1NS(=O)(=O)c1ccc(NC(=S)NC(=O)c2ccccc2F)cc1, the Potency was inconclusive: 100 µM [inhibitor, partial curve, poor fit].
CCOc1cc(/C=C\c2[nH]c(=O)[nH]c(=O)c2[N+](=O)[O-])ccc1OC(C)CC (stereo unspecified) was tested, and the Potency was inconclusive: 50.1 µM [inhibitor, partial curve, poor fit].
O=S(=O)(c1ccccc1)N1CCN(S(=O)(=O)c2ccccc2)c2ccccc21 was tested, and the Potency was inconclusive: 50.1 µM [inhibitor, partial curve, poor fit].
CC1COCC(C)N1C1=C(Cl)C(=O)c2ccccc2C1=O (stereo unspecified) was tested, and the Potency was inconclusive: 50.1 µM [inhibitor, partial curve, poor fit].
With Cc1ccc(Cn2c(N)c(S(=O)(=O)c3cccs3)c3nc4ccccc4nc32)cc1 the “activity change, negative = inhibition” value was inactive: 8.73%.
With CCOC(=O)c1cc(-c2ccc(/C=C3/C(=O)N(c4ccc(C(=O)O)cc4)N=C3C)o2)ccc1Cl the Potency was inconclusive: 100 µM [inhibitor, single point].
With Cc1ccc(NC(=O)c2ccc(CNS(=O)(=O)c3cccc(C(F)(F)F)c3)cc2)cc1 the Potency was inconclusive: 89.1 µM [inhibitor, single point].
In the case of Cc1ccc(OCCCC(=O)Nc2sc3c(c2C(N)=O)CCCC3)cc1, the Potency is reported as inconclusive: 112 µM [inhibitor, partial curve, poor fit].
For C=CCn1c(SCc2ccc3c(c2)OCO3)nc2scc(-c3ccco3)c2c1=O, the Potency was inconclusive: 79.4 µM [inhibitor, partial curve, poor fit].
In the case of CSc1nncc(/C(C)=N\Nc2ccccc2C)n1, the Potency is reported as inconclusive: 31.6 µM [inhibitor, full curve, poor fit].
CN(C)c1ccc(N=C/C=C2/N(C)c3ccccc3C2(C)C)cc1 was tested, and the Potency was inconclusive: 100 µM [inhibitor, single point].
CCCCn1nc2cc(C(=O)NCC34CC5CC(CC(C5)C3)C4)ccc2c1OCC was tested, and the “activity change, negative = inhibition” value was inactive: 27.7%.
With Cc1ccc(N(CC(O)CN(C)C)S(=O)(=O)c2ccccc2)cc1 (stereo unspecified) the activity change, negative = inhibition was inactive: -2.59% [at 11.4 µM].
For c1ccc(-c2[nH]ncc2CN2CCc3ccccc3C2)cc1, the “activity change, negative = inhibition” value was inactive: -29.3%.
In the case of Oc1cncc(-c2cccnc2)c1, the “activity change, negative = inhibition” value is reported as inactive: 4.24%.
In the case of CN(Cc1cn(-c2ccccc2)nc1-c1cc2ccccc2o1)C(=O)CCC(=O)O, the Potency is reported as inconclusive: 17.8 µM [inhibitor, full curve, poor fit].
In the case of Cc1cc(F)ccc1NCc1cccnc1, the Potency is reported as inconclusive: 89.1 µM [inhibitor, single point].
CCSc1nc2sc3c(c2c(=O)[nH]1)CCc1ccccc1-3 was tested, and the “activity change, negative = inhibition” value was inactive: 7.26%.
For O=C(CCNc1ccc(Cc2ccncc2)cc1)c1ccc([N+](=O)[O-])cc1, the Potency was inconclusive: 31.6 µM [inhibitor, full curve, poor fit].
For COc1ccc(C2CC(c3ccccc3)Oc3cc(C)cc(C)c32)cc1 (stereo unspecified), the Potency was “inactive”.
For O=C(COc1ccccc1)Nc1nc(-c2ccc(S(=O)(=O)N3CCOCC3)cc2)cs1, the Potency was inconclusive: 79.4 µM [inhibitor, single point].
In the case of O=C(O)c1ccc(N2C(=O)CC(N3C(=O)/C(=C/c4ccc(Cl)cc4)SC3=S)C2=O)cc1 (stereo unspecified), the Potency is reported as inconclusive: 31.6 µM [inhibitor, full curve, poor fit].
With O=C(N/N=C1/C(=O)c2cccc3cccc1c23)c1ccc(Cl)cc1 the Potency was inconclusive: 50.1 µM [inhibitor, partial curve, poor fit].
For CCN(CC)S(=O)(=O)c1ccc(N2CC(C(=O)N3Cc4ccccc4CC3C(N)=O)CC2=O)cc1 (stereo unspecified), the “activity change, negative = inhibition” value was inactive: -3.14%.
With CCC(c1ccc(O)c(O)c1)C(CC)c1ccc(O)c(O)c1 (stereo unspecified) the Potency was inconclusive: 20 µM [inhibitor, full curve, poor fit].
COc1ccc(C(=O)c2cn(CC(=O)Nc3ccc4c(c3)OCO4)c3ccc(OC)cc3c2=O)cc1 was tested, and the Potency was inconclusive: 25.1 µM [inhibitor, full curve, poor fit].
For CCN(CC)c1ccc(NC(=O)c2ccc(=O)[nH]c2)cc1S(=O)(=O)Nc1ccccc1OC, the Potency was inconclusive: 56.2 µM [inhibitor, partial curve, poor fit].
With O=C(O)c1cccc(Cn2c(Cl)c(/C=N/NC(=O)c3cc4ccccc4cc3O)sc2=O)c1 the Potency was inconclusive: 56.2 µM [inhibitor, partial curve, poor fit].
With COc1cccc(CN2CCC(C(=O)N3CCN(Cc4ccc5c(c4)OCO5)CC3)CC2)c1 the Potency was inconclusive: 89.1 µM [inhibitor, single point].
O=C(NCc1cccs1)C1CC1 was tested, and the Potency was inconclusive: 100 µM [inhibitor, single point].
O=C(C1CCCN(S(=O)(=O)c2cccnc2)C1)N1CCN(c2ccccn2)CC1 (stereo unspecified) was tested, and the “activity change, negative = inhibition” value was inactive: 6.51%.
For O=C(Cc1cccs1)N1CCCC(c2nc(-c3ccc(S(=O)(=O)N4CCCC4)cc3)no2)C1 (stereo unspecified), the Potency was inconclusive: 89.1 µM [inhibitor, single point].
With CC(C)Cn1c(-c2csc3c2CCCC3)n[nH]c1=S the Potency was inconclusive: 79.4 µM [inhibitor, single point].
With CCCCC1=CC2=C(c3ccco3)C(=O)C(C)(OC(=O)c3ccc(OC)cc3)C(=O)C2=CN1c1ccccc1 (stereo unspecified) the Potency was inconclusive: 79.4 µM [inhibitor, partial curve, poor fit].
With O=C(NNc1nc(-c2ccccc2)cs1)c1ccco1 the “activity change, negative = inhibition” value was inactive: -31.3%.
With Brc1ccccc1CN1CCC(N2CCCCC2)CC1 the “activity change, negative = inhibition” value was inactive: 6.82%.
In the case of O=C(Nc1ccc(NC(=O)c2cccs2)cc1)c1ccco1, the Potency is reported as inconclusive: 89.1 µM [inhibitor, single point].
In the case of CC(C)n1cc(CN2CCC(n3nccc3NC(=O)Cc3ccccc3)CC2)cn1, the “activity change, negative = inhibition” value is reported as inactive: -11.3%.
In the case of Cc1ccc(-n2cnc3c(sc4nccc(N(C)C)c43)c2=O)cc1, the “activity change, negative = inhibition” value is reported as inactive: -22.9%.
In the case of Cc1ccc(S(=O)(=O)N2CCN(c3ccc([N+](=O)[O-])c4cccnc34)CC2)cc1, the Potency is reported as inconclusive: 79.4 µM [inhibitor, partial curve, poor fit].
Cc1nnc(NC(=O)C2c3ccccc3Oc3ccccc32)s1 was tested, and the Potency was inconclusive: 50.1 µM [inhibitor, partial curve, poor fit].
In the case of CC1CCC2(CC1)NC(=O)N(CC(=O)Nc1ccc(F)cc1)C2=O (stereo unspecified), the Potency is reported as inconclusive: 100 µM [inhibitor, single point].
For C=C1N(C)c2cc([N+](=O)[O-])c(N)cc2C1(C)C, the Potency was inconclusive: 50.1 µM [inhibitor, partial curve, poor fit].
In the case of CCOc1ccc(NC(=O)CSc2cc(C)c3ccccc3n2)cc1, the “activity change, negative = inhibition” value is reported as inactive: -14.4%.
CN(CCOc1ccccc1)CC(O)COc1ccccc1 (stereo unspecified) was tested, and the “activity change, negative = inhibition” value was inactive: 24%.
O=C(CSc1nc2ccccc2o1)N/N=C/c1ccco1 was tested, and the “activity change, negative = inhibition” value was inactive: 7.48%.
For Clc1ccc(COc2ccccn2)cc1Cl, the “activity change, negative = inhibition” value was inactive: 24.5%.
COc1cccc(C(=O)N2CC(=O)Nc3ccc(C)cc3C2c2ccc(F)cc2)c1OC (stereo unspecified) was tested, and the “activity change, negative = inhibition” value was inactive: -12.6%.
For NC(=S)NNc1cc(Cl)cc(Cl)c1, the Potency was inconclusive: 100 µM [inhibitor, partial curve, poor fit].
With CC(C)(C)c1ccc(OCC(=O)Nc2ccc(C(=O)Nc3ccccc3C(=O)O)cc2)cc1 the Potency was inconclusive: 100 µM [inhibitor, partial curve, poor fit].
With O=C(CCC1CCCN(C(=O)CC2=CCCCC2)C1)N1CCN(c2ccccn2)CC1 (stereo unspecified) the Potency was inconclusive: 17.8 µM [inhibitor, full curve, poor fit].
With Cc1ccc(C)n1CCN1CCN(C(=O)c2ccc(Cl)cc2)CC1 the “activity change, negative = inhibition” value was inactive: 3.69%.
For CCCCn1c(=O)nc2n(-c3ccccc3)c3ccccc3cc-2c1=O, the “activity change, negative = inhibition” value was inactive: 13.5%.
CCCOCc1cc(CN2CCN(c3cccc(Cl)c3)CC2)c(O)c2ncccc12 was tested, and the “activity change, negative = inhibition” value was inactive: 2.25%.
In the case of Cc1cccc(N2CCN(C(=O)N3CCOCC3)CC2)c1C, the Potency is reported as inconclusive: 50.1 µM [inhibitor, partial curve, poor fit].
For CS/C(=N\S(=O)(=O)c1cccs1)NC(=O)CSc1nc2ccccc2s1, the Potency was inconclusive: 22.4 µM [inhibitor, full curve, poor fit].
With O=[N+]([O-])c1ccccc1S(=O)(=O)NCc1cccnc1 the Potency was inconclusive: 35.5 µM [inhibitor, partial curve, poor fit].
With CC(C)OC(=O)CSc1nnc(-c2ccc(C(C)(C)C)cc2)n1N the Potency was inconclusive: 50.1 µM [inhibitor, partial curve, poor fit].

Source: PubChem BioAssay AID504845 (National Center for Advancing Translational Sciences (NCATS), 2011)
% is scaled to controls: 0 for no effect and ±100 for the full control effect; potency is read from the fitted curve at half-maximal effect; tags tell the direction and shape of the fitted curve.
Also: nearly all actives have a fitted effect of over 75% in size.
